# Test results from PubChem BioAssay AID588855 (National Center for Advancing Translational Sciences (NCATS), 2011).
# Out of some 410,000 compounds screened, about 5,000 (1.2%) were called active. This list was built around the results that the source calls inconclusive (neither active nor inactive); the mix of calls is not that of the screen. Calls follow the shape of the dose curve; as a rule, active = well fitted inhibition curve with a large enough effect; inconclusive = small, poorly fitted or top-dose-only effect; inactive = no such curve, though single readings can be large or run the other way. A potency beside an inconclusive call is a rough fit, not a confirmed value.
# Assay: qHTS for Inhibitors of TGF-b; also: nearly all actives have a fitted effect of over 65% in size
# Settings: HepG2 CAGA-GFP TGF-b/SMAD3 reporter, GFP fluorescence, 18 h, TGF-beta stimulated, 500 pg/mL final; series mostly up to 46.1 µM
# Method in brief: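 Cell-based qHTS in HEPG2 carrying a CAGA-GFP Smad reporter; compounds added before 500 pg/mL final TGF-beta, 18 h incubation at 37 degrees C, GFP fluorescence quantified per cell by imaging cytometry.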
# Potency is read from the fitted curve at half-maximal effect; tags tell the direction and shape of the fitted curve.
row,Structure (SMILES),Potency
1,Cc1ccc(NC(=O)CNc2cccc(S(=O)(=O)N3CCCC3)c2)cc1F,"inconclusive: 35.5 µM [inhibitor, single point]"
2,Cc1cccc(C(=O)NCC(=O)NCCSc2ccc(Br)cc2)c1,"inconclusive: 5.01 µM [inhibitor, partial curve, poor fit]"
3,CCCN(C)C[C@@H]1OCCCC[C@@H](C)Oc2ccc(NC(=O)c3ccccc3)cc2C(=O)N([C@H](C)CO)C[C@@H]1C,"inconclusive: 15.8 µM [inhibitor, single point]"
4,O=S(=O)(NCc1ccccc1)c1ccc(Br)s1,"inconclusive: 10 µM [inhibitor, partial curve, poor fit]"
5,COc1cc2c(cc1OC)C(c1ccc(O)cc1)NCC2 (configuration not stated),inactive
6,CC(=O)NC(CC(=O)N(C)Cc1cccc(Cl)c1Cl)c1ccccc1 (configuration not stated),inactive
7,CCOC(=O)C(N)CSC1CC(=O)N(CCc2ccccc2)C1=O (configuration not stated),"inconclusive: 35.5 µM [inhibitor, single point]"
8,COc1ccc(-c2nc3ccccc3n2Cc2ccc(Cl)cc2)cc1,active: 15.8 µM
9,Cc1cccc(/C=C2\Sc3ccc(C(=O)N4CCC(C)CC4)cc3N(C)C2=O)c1,"inconclusive: 22.4 µM [inhibitor, single point]"
10,O=C(CCC(=O)N1CCOc2ccc(Cl)cc21)NCCCN1CCC(Cc2ccccc2)CC1,"inconclusive: 11.2 µM [inhibitor, single point]"
11,O=C(OCc1cc(=O)n2c3c(sc2n1)CCCC3)c1cccc(NC(=O)c2ccccc2F)c1,"inconclusive: 4.47 µM [inhibitor, partial curve]"
12,O=C(c1ccncc1)N1CCCC(N2CCN(c3ccc(F)cc3)CC2)C1 (configuration not stated),inactive
13,CCC(C)C(=O)OC1CCC=C2C=CC(C)C(CCC3CC(O)CC(=O)O3)C21 (configuration not stated),inactive
14,CCOc1ccc(NC(=O)CSC2=Nc3ccccc3C3=NC(CC(=O)NCc4ccc5c(c4)OCO5)C(=O)N23)cc1 (configuration not stated),"inconclusive: 4.47 µM [inhibitor, full curve, poor fit]"
15,Cc1ccc(CSCC(=O)NCc2cccnc2)cc1,"inconclusive: 1.26 µM [inhibitor, partial curve, poor fit]"
16,COC(=O)c1c(NC(=O)/C=C/C(=O)O)sc(C)c1-c1ccc(C)cc1,inactive
17,CC(=O)c1ccc(NC(=O)C2CCN(S(=O)(=O)c3cccnc3)CC2)cc1,inactive
18,Cc1c(C)n(Cc2ccccc2)c2ccc(C(=O)O)cc12,inactive
19,Cc1cc(C(=O)COC(=O)c2ccc(O)cc2O)c(C)n1-c1ccc(OC(F)F)cc1,"inconclusive: 10 µM [inhibitor, partial curve]"
20,CCCCCCn1c(=O)n2n(c1=O)[C@@H]1CN(S(=O)(=O)c3ccc(C)cc3)C[C@]1(O)[C@@H](OC(=O)NCc1ccccc1F)C2,active: 12.6 µM
21,CC(C)=CCC/C(C)=C/CC/C(C)=C/CC/C(C)=C/CC1=C(C)C(=O)c2ccccc2C1=O,"inconclusive: 35.5 µM [inhibitor, partial curve, poor fit]"
22,CCN(c1ccc(OC)cc1)S(=O)(=O)c1nnc(NC(=O)CC(C)C)s1,inactive
23,CC(=O)N(c1ccc(Br)cc1)C1C=CS(=O)(=O)C1 (configuration not stated),"inconclusive: 6.31 µM [inhibitor, full curve, poor fit]"

row,Structure (SMILES),Potency
1,Cc1oc(-c2cccs2)nc1CNC[C@H]1O[C@@H](n2cnc3c(N)ncnc32)[C@H](O)[C@@H]1O,inactive
2,Cc1cc2c3c(c1C)C1(C(=O)N3C(C)(C)CC2C)C(C#N)=C(N)Oc2cc(O)ccc21 (configuration not stated),"inconclusive: 22.4 µM [inhibitor, single point]"
3,C=C(C)c1cccc(C(C)(C)NC(=O)Nc2ccc(Cl)cn2)c1,"inconclusive: 12.6 µM [inhibitor, single point]"
4,COc1ccc(OC)c(-c2noc(CSc3nnc(Cc4ccccc4)n3-c3cccc(C)c3)n2)c1,"inconclusive: 35.5 µM [inhibitor, single point]"
5,NNC(=O)c1ccc(COc2ccc3ccccc3c2)cc1,"inconclusive: 35.5 µM [inhibitor, single point]"
6,Nc1nc(SCC(=O)Nc2ccc(OCc3ccccc3)cc2)n[nH]1,inactive
7,CC1=NN(c2ccc(C)cc2)C(=O)/C1=C/c1ccc(-c2cc([N+](=O)[O-])ccc2O)o1,"inconclusive: 35.5 µM [inhibitor, single point]"
8,COC(=O)[C@H]1C[C@H](OC(=O)Nc2cccs2)[C@@]2(O)CN(S(=O)(=O)c3ccc(C)cc3)CC2[C@H]1C(=O)OC (some centres not stated),"inconclusive: 25.1 µM [inhibitor, single point]"
9,NNC(=O)COc1ccc(-c2nccc(-c3ccc(F)cc3)n2)cc1,"inconclusive: 31.6 µM [inhibitor, single point]"
10,CCc1nnc(SCC(=O)Nc2cc(Cl)c(OC)cc2OC)c2cc3oc(C)cc3n12,inactive
11,COc1cccc(C(=O)Nc2ccc(NC(=O)c3cc4ccccc4o3)c(OC)c2)c1,"inconclusive: 11.2 µM [inhibitor, partial curve]"
12,CCOc1ccc(C(=O)CC(Sc2ccc(C)cc2)C(=O)O)cc1 (configuration not stated),"inconclusive: 10 µM [inhibitor, partial curve, poor fit]"
13,CCCC1(c2ccccc2)NC(=O)N(CC(=O)NCc2ccc(OC)cc2)C1=O (configuration not stated),inactive
14,CN(C)c1ncnc2c1ccn2C1OC(CO)C(O)C1O (configuration not stated),active: 0.224 µM
15,Cc1cccc(NC(=O)C2CCCN(S(=O)(=O)c3ccc4[nH]c(=O)ccc4c3)C2)n1 (configuration not stated),inactive
16,COc1ccc2c(CC(=O)Nc3ccc(OC)nc3)coc2c1,inactive
17,O=C(/C=C/c1ccc2ccccc2n1)c1cc(Br)ccc1O,inactive
18,Clc1ccccc1OCc1nnc2n1CCCCC2,inactive
19,COc1cccc(NC(=O)CSc2nnc(Cc3cccs3)n2-c2ccc(C)cc2)c1,inactive
20,COc1ccc(C)c2sc(N(Cc3cccnc3)C(=O)CCc3ccccc3)nc12,inactive
21,CCC(C)NC(=O)c1c(C)cc(=O)oc1C (configuration not stated),"inconclusive: 35.5 µM [inhibitor, single point]"
22,CCCCN(CC)C(=O)Nc1ccc2c(c1)N(C)C(=O)c1ccccc1S2,"inconclusive: 35.5 µM [inhibitor, single point]"
23,CCN(C(=O)CN1C(=O)S/C(=C\c2cccc(OC)c2)C1=O)C1CCS(=O)(=O)C1 (configuration not stated),inactive

row,Structure (SMILES),Potency
1,COCCN1CC(=O)N2C(c3cccc(OC)c3)c3[nH]c4ccccc4c3C[C@H]2C1=O (some centres not stated),inactive
2,S=C(NCCSCc1ccccc1Cl)Nc1ccccc1,"inconclusive: 35.5 µM [inhibitor, single point]"
3,COc1ccc(N2CCN(C3CCCN(Cc4ccc(F)cc4Cl)C3)CC2)cc1 (configuration not stated),"inconclusive: 6.31 µM [inhibitor, single point]"
4,CCC1=C(c2cc(OC)c(OC)c(OC)c2)C2(CCCC2)C(=O)O1,"inconclusive: 17.8 µM [inhibitor, partial curve, poor fit]"
5,NC(=O)[C@@H]1CC2(CC(c3cccc(NC(=O)COc4ccc(Cl)cc4)c3)=NO2)CN1C(=O)c1ccccc1 (some centres not stated),"inconclusive: 7.08 µM [inhibitor, partial curve, poor fit]"
6,Cn1c(SC2=CS(=O)(=O)c3ccccc32)nc2ccccc21,"inconclusive: 3.98 µM [inhibitor, single point]"
7,Cc1ccc(S(=O)(=O)NCc2ccccc2)cc1C(=O)N1CC(C)CC(C)C1 (configuration not stated),"inconclusive: 3.55 µM [inhibitor, single point]"
8,Cn1c(=O)c2c(-c3ccc(Br)cc3)n(Cc3ccc(F)cc3)cc2n(C)c1=O,"inconclusive: 11.2 µM [inhibitor, partial curve, poor fit]"
9,O=C1C=C(c2ccc3cc[nH]c3c2)C[C@@H](c2ccc3c(c2)OCO3)C1,"inconclusive: 35.5 µM [inhibitor, single point]"
10,COc1ccc(-c2nc3cc(C)ccn3c2NC(=O)c2cccc(F)c2)cc1,inactive
11,Clc1ccc(CNc2nc(CN3CCOCC3)nc3scc(-c4ccccc4)c23)cc1,"inconclusive: 22.4 µM [inhibitor, single point]"
12,Cc1c(NC(=O)c2ccccc2NS(=O)(=O)c2ccc(Br)cc2)c(=O)n(-c2ccccc2)n1C,inactive
13,O=C(O)c1c(-c2ccccc2)oc2ccc(OCc3c(F)cccc3Cl)cc12,"inconclusive: 35.5 µM [inhibitor, single point]"
14,CCCC(=O)NC(=S)Nc1cccc(Cl)c1N1CCCCC1,active: 7.94 µM
15,C=CCOC(=O)C1=C(C)NC(SCC(N)=O)=C(C#N)C1c1ccc(C)cc1 (configuration not stated),"inconclusive: 35.5 µM [inhibitor, single point]"
16,O=C(Cc1ccc(NC(=O)C2CCCN(C(=O)C3CCC3)C2)cc1)Nc1cccc(C(=O)N2CCCCC2)c1 (configuration not stated),"inconclusive: 12.6 µM [inhibitor, partial curve, poor fit]"
17,CSc1ccccc1NC(=O)CN(C)CC(=O)Nc1ccc(N2CCOCC2)cc1,"inconclusive: 4.47 µM [inhibitor, single point]"
18,CN(C)S(=O)(=O)c1cccc(NC(=O)CSc2nc3c(cc2C#N)C(=O)CC(C)(C)C3)c1,"inconclusive: 3.55 µM [inhibitor, partial curve]"
19,O=C(/C(=C/c1ccccc1)n1cncn1)c1ccc(Cl)cc1Cl,"inconclusive: 3.55 µM [inhibitor, single point]"
20,O=C(CSc1nccn1-c1cccc(Cl)c1)Nc1cccc2ccccc12,"inconclusive: 8.91 µM [inhibitor, partial curve, poor fit]"
21,CCOc1ccc(CCNC(=O)CCCc2nnc3n(CC)c(=O)c4sccc4n23)cc1,"inconclusive: 35.5 µM [inhibitor, single point]"
